Read counts are not given, so values of variants with three or more changes are uncertain.
B1: LINE1-full (parent)
chain: UACGUAGGUGGUUUUCCCCUGAUAGUGCUAAGGGGGCCUGGAAGUUUGGACUGGGCAGAGCUCAACACAGCGUGGCAAAGUGGCUGUGGCUAGACUGCCUCUCUGGAUUCCUCGUCACUCAGCAGGGCAUCUCUGAGAGAAAUGCC

Variants of: B1
Test: self-cleavage, relative activity (ratio to wild type); higher = more cleavage; in vitro, sequencing; the parent is a self-cleaving ribozyme
G33C U102C A117G gave a self-cleavage of 0.51. With U14A A43U U81C U115A A138G the self-cleavage was 2.51. With U13C U14C A79G the self-cleavage was 0.28. U20A A43G U102A A141G showed a self-cleavage of 1.08. For A59G C99U A141G, the self-cleavage was 0.02. Work on A22G G35U A65G yielded a self-cleavage of 0.13. U15A A65U C118A showed a self-cleavage of 0.14. Variant U5C A31U A77G C116A has a self-cleavage of 2.02. U39A A43G U130C gave a self-cleavage of 1.21. In the case of C19U U62C A141U, the self-cleavage is reported as 0.06. Work on U26A U52A A57G U108C yielded a self-cleavage of 0.52. Work on A69U U100C U104C yielded a self-cleavage of 0.11. Work on U14C U102C A140G yielded a self-cleavage of 1.01. G32A A64C U134C showed a self-cleavage of 0.32. Variant U14A A59G A67U has a self-cleavage of 0. A50G C84U U132C showed a self-cleavage of 0.16. For U52C U85A A92U A107U U132A A142G, the self-cleavage was 0.07. In the case of A79G U96C A124U, the self-cleavage is reported as 0.18. Work on A31G A50G A138G yielded a self-cleavage of 0.26. U47A G70A A79G G86A U100C gave a self-cleavage of 0.03. With U29C A57U A141G the self-cleavage was 0.16. U20C G49A U102C showed a self-cleavage of 1.66. Work on U73A G97A A140U yielded a self-cleavage of 0.21. For U46C A94G A117C U130C A136G A142G, the self-cleavage was 0. In the case of A59G A69G A79U U119C, the self-cleavage is reported as 0. A64G U81A A141U showed a self-cleavage of 0.22. With U26A G82A G88A the self-cleavage was 0.08. Variant A31U U104A U108C has a self-cleavage of 1.34. With G55U A67U U96C the self-cleavage was 0.03. Variant G21A A77U U102C has a self-cleavage of 0.63. Work on A57G U91C A94U A138G yielded a self-cleavage of 0. Work on G36U A50G U81C yielded a self-cleavage of 0.49. Work on U15C C19U A42U yielded a self-cleavage of 0.9. Work on U46C G86A U87G U96A A136G yielded a self-cleavage of 0.09. Variant U46C U47C C84A U87A has a self-cleavage of 0.16. Work on G8A A50U U115A yielded a self-cleavage of 1.11. A2G A59U A140G showed a self-cleavage of 0.53. In the case of U13C A64U U96C C116A, the self-cleavage is reported as 0.09. Work on A59U A64U A138G yielded a self-cleavage of 0.45. In the case of G83A U87C U100C U119G, the self-cleavage is reported as 0.51. With G7A U9G U132C the self-cleavage was 0.82. Work on U14G U62C A69U U87A yielded a self-cleavage of 0.15. Work on U115C C123A U134C yielded a self-cleavage of 2.31. In the case of U20A A43U A69G U81A G88A, the self-cleavage is reported as 0.04. For U46A A67C G83A U102C A107G, the self-cleavage was 0.02. In the case of G35A A65G G82A, the self-cleavage is reported as 0.01. A43U U102A A117G showed a self-cleavage of 2.65. G36U U47A C63U gave a self-cleavage of 0.16. A43U A64G C71A A117G gave a self-cleavage of 0.11. Variant U13C A31U U39C A65G U143C has a self-cleavage of 0.77. With A67G U108C A141G the self-cleavage was 0.26. Variant U1C A6U A138G U143C has a self-cleavage of 1.44. In the case of U15C U112A A138G, the self-cleavage is reported as 1.26. A6U A24U A129G gave a self-cleavage of 0.7. For U73C A77G U96A C99U U104C, the self-cleavage was 0. For U9C U23C A79G C98U U100C U112C A140G, the self-cleavage was 0.29. U13A A107U U130C U132C showed a self-cleavage of 1.34. Work on U23C A77G U115C yielded a self-cleavage of 1.48. With U14A U62G A140G the self-cleavage was 0. For U20C A31G A43U A129U, the self-cleavage was 1.56. In the case of U102A U112C A140G, the self-cleavage is reported as 1.15. For A78G U96C A117G G139C A140G, the self-cleavage was 0.59. U14A U46C U47C U100C showed a self-cleavage of 0. For U52C U100C A124U, the self-cleavage was 0.68. A24G U26A U46C A57U U104C gave a self-cleavage of 0. Variant A43G G58A A79G A142G has a self-cleavage of 0. Variant U46C A77U G88A U132G A138G has a self-cleavage of 0. Variant A24G A78C U85C has a self-cleavage of 0. Work on U45C A121U A138U A142G yielded a self-cleavage of 1.07. A22G G55A U115A A140G gave a self-cleavage of 0.18. In the case of U9A U15C U102C, the self-cleavage is reported as 1.26. Variant U12C G32C A64G has a self-cleavage of 1.17. Variant C63A A117C A124U has a self-cleavage of 0.11. C3U U12C A79G showed a self-cleavage of 2.3. Variant U100C G114A A142U has a self-cleavage of 1.53. U62C U130C U132A gave a self-cleavage of 0.05. A42G A59U C131G showed a self-cleavage of 1.34. Variant A65G A124G G125U has a self-cleavage of 0. Variant U45C U62C U85C C111U has a self-cleavage of 0.06. With U9G U46C G58U A59U A79G the self-cleavage was 0.18. For A6G U9C G33U, the self-cleavage was 1.21. Work on U1A U9A U14C U47C yielded a self-cleavage of 0.93. With U39A A77U G80A U143A the self-cleavage was 1.44. Work on U46C G49A G88A A121G yielded a self-cleavage of 0.04. With G4A U29C G74A the self-cleavage was 1.03. With A42G A117U C131A the self-cleavage was 1.8. With A64U U130A A140G the self-cleavage was 0.42. Variant A42G U104A C146U has a self-cleavage of 0.92. In the case of U14C A22U U100C G122U, the self-cleavage is reported as 2.02. With U20C A94U U108C U115C the self-cleavage was 0.63. Variant U13C U20G U102C has a self-cleavage of 1.15. For U1C A22G G80U A117G, the self-cleavage was 1.1. In the case of G7U A67U A107G, the self-cleavage is reported as 0.17. For A79U A92G A117G, the self-cleavage was 0.07. U29C A50G C113A A129G A141G showed a self-cleavage of 1.17. Work on A22G C95U G135A yielded a self-cleavage of 0.31. For A30G A59G A138G, the self-cleavage was 0.73. For U14A A129C U132C, the self-cleavage was 0.99. For U13A U115C G127A, the self-cleavage was 1.12. With C3U U14C U46C the self-cleavage was 0.63. U20A A50G U108C gave a self-cleavage of 2.42. With A64G A129G G137A the self-cleavage was 0.26. For U13C U47C A77G A121G, the self-cleavage was 0.97. U9A U14A A140G gave a self-cleavage of 0.8. For U14C U46C A117G, the self-cleavage was 1.53. In the case of U29A A57U U115C U119C G122A C145G, the self-cleavage is reported as 0.57. For U100A U115C U132C, the self-cleavage was 0. U13C G21A U29A showed a self-cleavage of 1.02. U14C G60U U91C U119A showed a self-cleavage of 0.05. U13C U20C G88U gave a self-cleavage of 0.17. A43U A67G C90A showed a self-cleavage of 0.06. In the case of G33A U109G C110U, the self-cleavage is reported as 0.72. For U14C A69G G127U, the self-cleavage was 0.46. For U13C A30U A78G A136U A140G, the self-cleavage was 0. In the case of U29C A43G A124U, the self-cleavage is reported as 1.9. For U39C A69G A77U, the self-cleavage was 0.12. For A31U U85A U100C U108C A138G, the self-cleavage was 0. U12C A30C U134C showed a self-cleavage of 2.02. U47C C51U A69U A79G A136U gave a self-cleavage of 0. For U15C G83A A129G, the self-cleavage was 1.13. Work on A69U A78G A107G yielded a self-cleavage of 0.03. For A2G A6G U46C A78G U119C, the self-cleavage was 0.63. With U13C C17A G21A A67G C76U A129G A140G the self-cleavage was 0.55. With U26C U81A U85C U104C U143C the self-cleavage was 0. In the case of U52A U85C A94G, the self-cleavage is reported as 0.1. With U13C A43G A65U U73A A78G A138G A141G the self-cleavage was 0.13. U26A U81C A140G U143C gave a self-cleavage of 1.38. For U26C A67G U102A, the self-cleavage was 0.9. With U12C A69U U108C U119C the self-cleavage was 0.28. In the case of G49A G53A A59C U87C U102C, the self-cleavage is reported as 0. In the case of U13C U47A U112C G135A, the self-cleavage is reported as 0.75. For G41A U46C C131U, the self-cleavage was 1.26. U12C A57G U104C showed a self-cleavage of 0. With U91G U102C A140G the self-cleavage was 0.18. Variant U45G A78G U100A A107G C133A A141G has a self-cleavage of 1.02. In the case of G4A U13C A92G, the self-cleavage is reported as 0. With A43G C56U U73C the self-cleavage was 0.07. U20A G127C U132C C146A gave a self-cleavage of 2.3. For U13C U102C A142G, the self-cleavage was 1.04. U52A A59G U134G showed a self-cleavage of 0.14. U1C U12G A65U U85A G125U gave a self-cleavage of 0.08. Variant U13C A24U A59G has a self-cleavage of 0.24. With U12G U29A A124G the self-cleavage was 0.6. For U12C G70U U73C, the self-cleavage was 0.1. Variant U132C A138U A141G U143C has a self-cleavage of 0. G36A A57U U96C showed a self-cleavage of 0. In the case of U39C A136U A140G, the self-cleavage is reported as 1.31. Variant U12C U15C A65G has a self-cleavage of 0.51. Variant U13C G53A U73G U100A has a self-cleavage of 0.34. Work on G53A G88A U104C U130A yielded a self-cleavage of 0.02. A31U A65G U102C gave a self-cleavage of 0. Work on U39A A67G G72A yielded a self-cleavage of 0.4. With U13C G58U A94U the self-cleavage was 0.1. For U12G U15C U29C A57U A142U, the self-cleavage was 0.69. In the case of A43G U46C U109C, the self-cleavage is reported as 0.59. For A42G A65U U109C, the self-cleavage was 0.45. Work on U23C U47A A92G C103A yielded a self-cleavage of 0.16. U14A U47A U119A A140G gave a self-cleavage of 0.95. For U14C A42G C120U, the self-cleavage was 0.61. U39A A42U A57G U87C gave a self-cleavage of 0.23. Variant U20C U46C U132C A138G has a self-cleavage of 1.6. For U14G U39C U73G, the self-cleavage was 1.58. Variant U9A U45C A67U has a self-cleavage of 0.15. U20C U85C A92G A129G U143C showed a self-cleavage of 0. With U15C A42G U91A U108C U132C the self-cleavage was 0.71. Variant U81A U104C U112C has a self-cleavage of 2.78. U13C A31G A65G A121U A138G gave a self-cleavage of 0.

— the RNAGym collection of RNA variant scans (doi:10.7554/elife.90254)
